# Assay results reported in publication PMC4336329 (PLoS ONE, 2015).
# Out of some 310,000 compounds screened, about 2,200 (0.71%) showed an effect of 50% or more. Effects have a minus sign here. The list shows a part of the results.
# Biological target: human ether-à-go-go-related gene (hERG) potassium channel (human, UniProt Q12809)
# Assay: primary screen, population patch clamp on CHO cells stably expressing hERG
# Chain of human ether-à-go-go-related gene (hERG) potassium channel (Q12809 whole entry, looked up): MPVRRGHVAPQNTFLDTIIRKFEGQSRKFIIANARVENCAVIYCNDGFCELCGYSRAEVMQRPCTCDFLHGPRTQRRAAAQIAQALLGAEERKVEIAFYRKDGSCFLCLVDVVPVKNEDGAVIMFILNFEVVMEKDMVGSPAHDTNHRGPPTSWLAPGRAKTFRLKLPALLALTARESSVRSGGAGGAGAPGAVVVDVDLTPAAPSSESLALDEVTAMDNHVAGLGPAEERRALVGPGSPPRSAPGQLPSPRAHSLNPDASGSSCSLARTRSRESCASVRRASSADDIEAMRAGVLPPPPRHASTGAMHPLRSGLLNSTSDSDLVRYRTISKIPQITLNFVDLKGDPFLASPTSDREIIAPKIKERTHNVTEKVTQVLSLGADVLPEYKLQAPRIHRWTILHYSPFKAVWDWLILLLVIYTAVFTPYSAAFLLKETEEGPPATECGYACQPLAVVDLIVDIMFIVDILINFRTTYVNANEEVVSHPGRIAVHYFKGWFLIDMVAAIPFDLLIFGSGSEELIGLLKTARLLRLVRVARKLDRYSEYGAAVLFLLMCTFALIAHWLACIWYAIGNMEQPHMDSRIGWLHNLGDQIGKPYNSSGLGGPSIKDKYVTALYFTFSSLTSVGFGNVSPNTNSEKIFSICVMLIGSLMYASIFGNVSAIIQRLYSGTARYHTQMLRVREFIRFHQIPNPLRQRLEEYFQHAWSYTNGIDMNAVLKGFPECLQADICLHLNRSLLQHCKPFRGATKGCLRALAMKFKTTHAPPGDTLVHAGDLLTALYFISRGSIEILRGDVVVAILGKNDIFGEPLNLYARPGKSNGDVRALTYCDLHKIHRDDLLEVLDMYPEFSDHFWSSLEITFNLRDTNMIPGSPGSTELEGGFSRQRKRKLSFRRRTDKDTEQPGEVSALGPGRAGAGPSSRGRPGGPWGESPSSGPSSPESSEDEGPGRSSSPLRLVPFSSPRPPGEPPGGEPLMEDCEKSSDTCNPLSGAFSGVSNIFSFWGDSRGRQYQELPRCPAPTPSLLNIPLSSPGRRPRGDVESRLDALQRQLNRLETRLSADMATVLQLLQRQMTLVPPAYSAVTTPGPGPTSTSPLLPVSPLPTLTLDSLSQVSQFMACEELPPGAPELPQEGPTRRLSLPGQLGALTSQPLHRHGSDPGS
row,SMILES,"hERG current change (%, negative = inhibition) at 1uM [%]"
1,CC1(C)CCC(=O)N(c2ccccc2)C1=O,10.3
2,O=C(Nc1ccc(N2C(=O)CCC2=O)cc1Cl)c1cccs1,11.7
3,O=c1c2ccccc2nc(-c2cccs2)n1-c1ccc2ccccc2c1,2.66
4,COc1ccc(CNC(=O)COC(=O)c2cc(-c3ccc(Cl)s3)nc3ccccc23)cc1,7.75
5,Cc1cc(C(=O)COc2ccccc2C(N)=O)c(C)n1C,3.43
6,CC1CCN(C(=O)c2cc3c(ccc4ccccc43)o2)CC1,-8.23
7,Cc1ccc(Cl)cc1N(CC(=O)NC1CCCC1)C(=O)c1csnn1,20.9
8,Cc1cc(C)c(S(=O)(=O)c2ccccc2C)c(Cl)n1,8.79
9,O=C(Cc1ccccc1)NCc1ccncc1,7.72
10,CCOC(=O)c1c(NC(=O)C2(C)Cc3ccccc3C(=O)O2)sc2c1CCCC2 (centres unmarked),17.5
11,O=C(OCC(=O)N1CCCCCC1)c1cccc(Cl)c1,6.2
12,CC(CCc1ccccc1)NC(=O)c1cccnc1 (centres unmarked),20.2
13,CCn1c(=O)cc(SCC(=O)NCc2ccc(C)o2)c2ccccc21,6.24
14,Cn1cc(CNCc2cnc3ccccn23)c(-c2ccc(Oc3ccccc3)cc2)n1,2.02
15,C=C(C)CSc1nnc(-c2ccc(OC)cc2)n1N,-2.01
16,CCC(C)NC(=O)c1ccc2c(c1)S(=O)(=O)c1ccccc1C2=O (centres unmarked),23
17,O=C(NCC(c1ccco1)N1CCN(c2ccc(F)cc2)CC1)C1CCCCC1 (centres unmarked),-1.53
18,CCOC(=O)c1ccc(NC(=O)CCn2c(=O)oc3ccccc32)cc1,11.2
19,Cc1cc(N2C(=O)C(O)=C(C(=O)c3ccco3)C2c2cccc(Cl)c2)no1 (centres unmarked),10.8
20,COc1cccc(CNC(=O)CCCNS(=O)(=O)c2cccs2)c1,16.4
21,Cc1c(NC(=O)CN2CCN(C(=O)c3ccco3)CC2)c(=O)n(-c2ccccc2)n1C,-4.71
22,Cn1c(=O)c(C#N)c(-c2ccccc2)n2cnnc12,2.79
23,CCOC(=O)C1=C(O)C(=O)N(c2ccc(S(N)(=O)=O)cc2)C1c1ccc(OC)cc1OC (centres unmarked),5.69
24,CN(CC(=O)Nc1ccccc1Cl)C(=O)COC(=O)c1cc(S(=O)(=O)N(C)C)ccc1N1CCCC1,16.6

row,SMILES,"hERG current change (%, negative = inhibition) at 1uM [%]"
1,COc1cccc(CN(C)CC2CCCN(CCc3ccccc3C)C2)c1 (centres unmarked),-32.6
2,NC(=O)CC[C@@H]1NC(=O)[C@@H]2CCCN2C(=O)c2cc([N+](=O)[O-])cc(I)c2NCCC[C@@H](C(=O)NC(CC(=O)O)C(N)=O)NC1=O (some centres unmarked),-7.47
3,CC(=O)c1ccc(Nc2cc(C)nc3ncnn23)cc1,7.99
4,O=C(/C=C/c1ccccc1)NC(=S)Nc1ncccn1,14.1
5,O=C(/C=C/c1cccc(Cl)c1)Nn1c(-c2cccs2)nc2ccccc2c1=O,11.5
6,COc1ccccc1CC(=O)N(Cc1ccccc1)c1ccc(C)cc1,-2.47
7,CCc1sc(C(=O)NCc2ccco2)cc1C,14
8,CCOC(=O)Cc1nnc(NC(=O)CSc2ccccc2)s1,10.8
9,O=C(O)/C=C/c1ccc2c(c1)OCCO2,6.97
10,O=c1oc2ccccc2cc1-c1nnc(-c2cccc(Br)c2)o1,-4.04
11,CCSc1nc(-c2ccc(OC)cc2)cc(-c2ccccc2)c1C#N,2.51
12,Cn1c(CNc2ccccc2)nc2ccccc21,14.2
13,Cc1cccc(NC(=O)Nc2ccc(Br)cc2)n1,12.3
14,O=C1c2ccccc2C(Nc2cccnc2)N1Cc1ccccc1 (centres unmarked),-11.9
15,c1ccc(C2=Nc3ccccc3OC2)cc1,6.1
16,Cc1nnc(NC(=O)CSc2nnc3ncccn23)s1,18.6
17,CC1CCN(c2nnc(N3CCC(C)CC3)c3ccccc23)CC1,10.5
18,CSc1nc(N)c(C(=O)NC2CCCCC2)s1,14.2
19,CC(=O)NCC(=O)NC1CCCc2c1cnn2-c1ccc(C(C)(C)C)cc1 (centres unmarked),5.63
20,O=C(Cn1c(C(F)(F)F)nc2ccccc21)NCCCN1CCOCC1,13.5
21,COc1ccc([C@@H]2[C@@H]3C(=O)N(C(C)(C)C)C(=O)[C@@H]3[C@]3(Cc4ccc(Cl)cc4)C(=O)N(c4ccc(OC)cc4)C(=O)N23)cc1,-0.411
22,O=C(CSCc1cnn(-c2ccccc2)c1-n1cccc1)NCc1cccs1,-13.5
23,Cc1ccc2c(c1)nnn2C1CCN(S(=O)(=O)c2ccc3ccccc3c2)CC1,4
